# In the supplement of paper PMC7826260:
# The other results are listed elsewhere or left out. Cleavage of a single-stranded DNA pool by Rep nickase domains was read by sequencing (1 h at 37 °C, 3 µM enzyme); the outer parts of the 90-letter strands are left off. Uncut reads are compared with the no-enzyme pool on a log2 scale; the lower, the more was cut; hits are not called. Reads are scaled to the total, so uncut sequences can rise above 0 when many others are cut.
# What was measured:
# Test in all cases: uncleaved DNA left, log2 of reads against the no-enzyme library (log2 ratio); higher = less cleavage (more negative = more Rep cleavage of the k-mer); sequences stand for … in CTCGTCCG…ACCGGAGA
# [1] = tested on: T1, Rep nickase domain of Muscovy duck circovirus
# T1 sequence (residues 1-111, tag not shown): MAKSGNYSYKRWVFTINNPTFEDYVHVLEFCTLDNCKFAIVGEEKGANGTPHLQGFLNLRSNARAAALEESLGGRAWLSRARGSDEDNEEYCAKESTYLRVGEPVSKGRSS
# Description: (§1)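 A pool of 90-nt single-stranded DNAs with seven random bases just before the constant AC of the nick site (name = the seven bases) was cut by 3 µM recombinant His6-SUMO-tagged Rep nickase domain (300 nM DNA, 50 mM HEPES pH 8.0, 50 mM NaCl, 1 mM MnCl2, 1 h, 37 °C, three replicates). Uncut DNA was amplified and sequenced.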
# [2] = tested on: T2, Rep nickase domain of banana bunchy top virus
# T2 sequence (residues 1-94, tag not shown): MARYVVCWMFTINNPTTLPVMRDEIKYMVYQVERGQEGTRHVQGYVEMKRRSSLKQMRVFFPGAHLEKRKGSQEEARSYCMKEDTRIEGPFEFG
# Description: as §1
# [3] = tested on: T3, Rep nickase domain of cabbage leaf curl virus
# T3 sequence (residues 1-116, tag not shown): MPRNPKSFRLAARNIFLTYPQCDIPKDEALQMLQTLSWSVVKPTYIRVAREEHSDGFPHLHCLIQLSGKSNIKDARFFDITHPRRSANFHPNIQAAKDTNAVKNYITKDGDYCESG
# Description: as §1
# [4] = tested on: T4, Rep nickase domain of chickpea chlorotic dwarf virus
# T4 sequence (residues 1-124, tag not shown): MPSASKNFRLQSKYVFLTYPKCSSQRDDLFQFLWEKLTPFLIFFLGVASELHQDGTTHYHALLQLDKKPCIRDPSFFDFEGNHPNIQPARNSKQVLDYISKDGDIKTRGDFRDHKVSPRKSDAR
# Description: as §1
# [5] = tested on: T5, Rep nickase domain of faba bean necrotic yellows virus
# T5 sequence (residues 1-98, tag not shown): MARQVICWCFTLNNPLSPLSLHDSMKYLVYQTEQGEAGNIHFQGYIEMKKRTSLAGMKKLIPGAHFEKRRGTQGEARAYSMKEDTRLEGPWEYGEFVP
# Description: as §1
# [6] = tested on: T6, Rep nickase domain of maize striate mosaic virus
# T6 sequence (residues 1-117, tag not shown): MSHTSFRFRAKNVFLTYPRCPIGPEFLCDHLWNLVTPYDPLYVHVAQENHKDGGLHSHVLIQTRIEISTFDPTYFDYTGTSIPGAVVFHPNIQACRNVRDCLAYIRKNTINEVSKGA
# Description: as §1
# [7] = tested on: T7, Rep nickase domain of porcine circovirus 2
# T7 sequence (residues 2-116, tag not shown): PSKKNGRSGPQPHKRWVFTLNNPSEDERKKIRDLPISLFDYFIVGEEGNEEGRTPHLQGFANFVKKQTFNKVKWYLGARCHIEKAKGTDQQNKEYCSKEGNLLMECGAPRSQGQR
# Description: as §1
# [8] = tested on: T8, Rep nickase domain of tomato yellow leaf curl virus
# T8 sequence (residues 1-136, tag not shown): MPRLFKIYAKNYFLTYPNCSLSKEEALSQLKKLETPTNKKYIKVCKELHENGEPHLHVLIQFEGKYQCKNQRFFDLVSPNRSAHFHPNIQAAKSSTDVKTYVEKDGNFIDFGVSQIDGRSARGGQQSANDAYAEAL
# Description: as §1
# [9] = tested on: T9, Rep nickase domain of wheat dwarf virus
# T9 sequence (residues 1-137, tag not shown): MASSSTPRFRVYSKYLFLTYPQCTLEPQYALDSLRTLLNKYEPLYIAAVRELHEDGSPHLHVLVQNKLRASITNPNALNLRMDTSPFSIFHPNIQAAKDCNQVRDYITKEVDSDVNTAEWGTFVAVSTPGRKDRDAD
# Description: as §1
Sequence,uncleaved DNA left (log2) [1],uncleaved DNA left (log2) [2],uncleaved DNA left (log2) [3],uncleaved DNA left (log2) [4],uncleaved DNA left (log2) [5],uncleaved DNA left (log2) [6],uncleaved DNA left (log2) [7],uncleaved DNA left (log2) [8],uncleaved DNA left (log2) [9]
TTCATCG,0.102,-0.0223,-0.803,-0.524,0.123,-1.07,0.198,0.0448,0.00711
GCCTATT,-2.75,-0.581,-0.458,-1.8,-0.251,0.0537,-2.56,-0.122,-0.475
GGGTACG,0.0587,-0.00498,0.717,1.71,-0.0678,2.01,0.136,-0.00965,0.0782
GCAACGG,-0.00392,0.0143,0.47,1.42,0.00765,1.93,0.134,-0.104,-0.0113
TCGAATA,-0.0404,0.0662,-0.000929,-0.985,0.0433,-0.202,-0.162,0.01,0.0935
CACTAAG,0.0424,0.0693,-0.609,-0.197,0.0998,-0.979,0.16,0.128,0.0326
GACAAGC,-0.0929,0.0397,0.114,0.537,0.000908,-0.238,0.134,-0.0232,0.0254
AAGAATC,0.0403,0.0217,0.228,0.211,0.178,0.162,0.0121,0.0156,0.098
TAAACAG,0.021,-0.04,-0.891,-1.53,0.0342,-1.27,0.124,0.028,-0.00819
TTGTTTA,-0.0607,-0.172,0.093,-0.767,-0.17,-0.157,-0.3,-0.0723,-0.0831
AAATGCT,-3.76,-0.166,-4.43,-3.56,-0.0335,-3.49,-4.34,-0.354,-3.86
CAATTTT,-4.15,-3.04,-4.58,-3.94,-0.225,-3.75,-4.68,-2.41,-4.43
TCGTCGT,-0.117,0.00719,-0.335,-0.76,0.0427,-0.995,-0.884,-0.109,-0.0317
TCCGCAC,-0.19,-0.107,-0.0283,-0.401,-0.106,-0.599,-0.0147,-0.179,-0.187
GTGGATG,-0.0639,0.0832,0.333,1.09,-0.091,1.45,0.239,0.000642,0.102
CTACACG,0.0492,-0.0973,-1.17,-0.955,-0.0417,-1.16,0.105,-0.203,-0.121
CGCTTGG,-0.0439,-0.0842,-0.389,-0.283,-0.0979,-0.913,-0.021,-0.21,0.00771
AGCAGCA,-0.0486,0.12,-0.162,0.0504,-0.0538,-0.231,-0.285,0.0475,0.033
GACGATG,0.0534,-0.0218,0.0396,0.537,-0.00376,0.972,0.0802,-0.127,-0.0945
CCAACGT,-0.0154,-0.176,-0.0224,-0.658,-0.104,-0.604,0.0328,-0.121,-0.162

Sequence,uncleaved DNA left (log2) [1],uncleaved DNA left (log2) [2],uncleaved DNA left (log2) [3],uncleaved DNA left (log2) [4],uncleaved DNA left (log2) [5],uncleaved DNA left (log2) [6],uncleaved DNA left (log2) [7],uncleaved DNA left (log2) [8],uncleaved DNA left (log2) [9]
CATTAGA,-0.0619,-0.144,-0.636,-0.8,-0.0348,-1.31,-0.00367,-0.0352,-0.0957
CTAGCCC,0.0197,-0.0625,0.0385,-0.349,-0.198,-0.491,-0.0388,-0.0384,-0.123
AGTATTG,0.0864,0.0842,-0.0835,0.221,-0.0363,0.0213,0.148,-0.052,0.000459
CGGTTAT,0.0795,-0.0507,0.267,0.458,-0.0308,0.773,-0.976,-0.0294,-0.0338
GGTAACT,0.0297,0.0385,0.521,0.915,0.0665,1.98,0.0285,0.0339,0.0823
CAACGAG,0.00605,0.0306,0.0805,0.204,0.02,-0.679,0.144,0.0893,0.115
GACGAGG,0.106,0.0434,0.306,0.972,0.0362,0.958,0.097,0.0925,0.0517
CCTGTCA,-0.00776,-0.0781,0.0517,-0.707,0.0301,-0.34,0.0167,0.105,0.0387
TGACTTC,-0.052,0.0269,0.309,0.459,0.0365,1.02,0.112,0.00967,0.0192
ACTCAAG,0.0766,0.0128,-0.797,-0.107,0.096,-0.894,0.23,0.11,-0.149
AGATCCG,0.0142,0.0323,-0.147,0.458,0.0187,-0.648,0.16,-0.117,0.0756
TTGTAGG,0.114,0.0181,0.347,1.04,0.0545,1.05,0.118,-0.0418,0.0521
TCCGAAG,0.0132,0.0795,-0.31,-0.239,0.0197,-0.522,0.152,0.129,-0.113
GGGTAGG,0.149,0.132,0.801,1.76,0.114,2.19,0.261,0.0609,0.203
GCGCCGC,-0.169,0.059,-0.185,-0.0151,-0.0954,-0.116,0.0898,-0.00696,-0.0562
TGGGCAA,-0.00413,0.0477,0.78,2.02,0.0073,2.16,0.158,0.0442,0.159
TAGGGGT,0.0329,-0.0561,0.222,1.19,0.0193,1.74,0.0299,-0.00426,0.133
TTGTTCT,-2.04,-0.184,-0.0194,-1.71,-0.159,-0.519,-3.16,-0.0638,-0.0852
TAGCAGG,0.0657,0.0174,0.199,0.623,0.0485,0.472,0.12,0.0438,0.0656
CCTTTTT,-2.95,-0.487,-0.169,-2.5,0.0726,-0.731,-2.92,0.0271,-0.093

Sequence,uncleaved DNA left (log2) [1],uncleaved DNA left (log2) [2],uncleaved DNA left (log2) [3],uncleaved DNA left (log2) [4],uncleaved DNA left (log2) [5],uncleaved DNA left (log2) [6],uncleaved DNA left (log2) [7],uncleaved DNA left (log2) [8],uncleaved DNA left (log2) [9]
ATGAACC,0.0633,0.0131,0.143,0.172,0.0205,-0.0151,-0.0937,0.0849,0.0661
ACTAAGG,0.00121,0.115,-0.285,0.205,0.0882,-0.822,0.153,0.0958,0.148
GTTGAGC,-0.048,-0.0157,0.0164,0.365,-0.107,-0.23,-0.0746,0.0703,0.00609
GTTTGAC,0.0112,-0.074,0.278,0.869,-0.0912,1.46,0.0379,-0.0402,-0.0323
GTATACG,0.0334,-0.00857,-0.546,-0.644,-0.033,-0.885,0.173,0.0488,-0.094
GTAACCT,-0.0413,-0.0161,0.144,0.547,-0.0173,1.61,-0.0724,0.11,0.0997
TTGGCCT,-0.0161,-0.0508,-0.136,-1.1,-0.135,-0.298,-0.064,-0.02,-0.0637
AACGCCC,-0.0059,-0.0516,-0.137,-0.405,-0.0881,-0.246,-0.138,-0.16,-0.0141
TTGTAGA,-0.0313,0.0099,-0.0592,-0.389,0.0545,-0.963,0.0456,0.0442,-0.0735
ACACCCA,-0.105,-0.0163,-0.0385,-0.894,-0.0239,-0.519,-0.218,-0.142,0.0345
AGTTAAT,-3.02,-1.57,-0.344,-0.793,-0.244,-0.086,-3.97,-0.0304,-0.238
AGACAGT,0.136,0.0618,0.679,1.32,0.168,1.67,0.137,0.177,0.218
TTAAATA,0.0366,0.0993,0.176,-1.11,0.0563,-0.0613,0.128,0.0431,0.177
CGAAGTA,-0.00727,0.1,0.0658,-0.45,0.0466,-0.107,0.0548,-0.0122,-0.0174
GGCAAAC,-0.0435,0.071,0.509,1.4,0.0148,1.71,0.139,0.0553,0.0481
TGGGGAA,-0.0708,-0.01,0.666,1.59,0.16,2.01,0.0683,0.0238,0.125
TTCGATG,0.161,-0.0704,-0.0312,0.144,0.156,-0.0629,0.137,-0.0653,0.0315
AGCCATC,-0.0816,-0.11,0.104,0.585,-0.269,-0.164,-0.0306,0.0274,0.0443
GGCCCGT,0.0909,0.104,0.52,0.994,-0.0801,1.59,0.173,-0.0118,0.0472
GGCTCTC,-0.173,-0.0885,0.238,0.75,-0.0455,1.27,-0.149,-0.0716,0.0488
